In the supplement of paper PMC10126150:
Sequences with one replicate were seen in a single cluster, so their values are uncertain.

Test system: ATP
Test: switch fluorescence ratio, 500 uM ATP over buffer (Cy3 cluster intensity, sum of 5 cycles each) (fold (ratio)); higher = stronger signal-on switching upon ATP binding; sequences stand for … in TCGTCGGCAGCGTCAGATGTGTATAAGAGACAGTTTTTTTTTTTTTTTTTTTTTTTTT…TC
Conditions: aptamer strand: ATP DNA aptamer (quencher-CACCTGGGGGAGTATTGCGGAGGAAGG + anchor), 100 nM annealed; ATP concentration: 500 uM; one replicate
Method in brief: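 Exposure to 500 uM ATP lasted 15 min at 22 °C before imaging, and a selection-buffer image was taken beforehand, for Cy3-labelled switching-strand clusters on a modified Illumina MiSeq flow-cell annealed to 100 nM quencher-labelled ATP aptamer. Five buffer/ATP cycles were run with NaOH stripping and re-annealing between them. The fluorescence ratio per cluster is summed target-cycle over summed buffer-cycle Cy3 intensity, averaged per switch-domain sequence. Clusters outside 100-1000 RFU were excluded.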

Sequence	switch fluorescence ratio
TAGTATCGGG	0.978
GCTTGGGACG	0.976
TCAGGCGGGA	1.01
GTGAGTACGT	0.976
GTTTCCACGA	1
GTAGCATGCG	0.794
TAGAAATCGT	1.06
ACATTGGGGT	0.972
AGTCGAGATG	0.971
TGGTCAAGG	0.968
TGTAGCTGAG	1.06
CCAGATGTTC	0.997
CATTTTGTTA	0.991
TCGAGCGGCG	0.89
AAGACATATT	0.989
TTTTGCGAGT	0.959
ACTCGACATA	1.19
CTGAGCGTGT	0.982
GAAATAAACC	1.06
CCCGGTGGGG	0.97
TCGTCCCCGC	2.21
TTTAAACCGC	1.19
ATTGGAGTA	0.968
TGACAGCAAC	2.69
AGCCTTGAAC	1.01
ACGAACAGT	1.11

Sequence	switch fluorescence ratio
CCGATTTATC	1.11
AGTTCCATA	1.02
ACAATTGAGA	0.976
ACAGGCACTC	1.15
CAGACTAGGT	1.04
TAAGCACAAA	1.21
TGCGGGTTAC	1.05
GGCATTTGCG	0.93
ACTGACAGTT	1.13
TTCGTGCGA	1.29
CTCCCGTCA	0.974
ACGCTGGACG	1.06
TTAGGTACTT	1.07
AACCGCAGAA	2.46
TTGTAGAACT	1.02
GGCATTTCGG	0.95
AACGTCTCAG	1
CGCGTGGTCT	0.998
TGAAGATTT	1
ACCGATTTCG	1.06
GTCATCATAG	1.02
ACTCGGGTCG	1.14
ACCCTTCAAT	1.01
CGAAGGAAT	1.11
TGACGTGATG	0.988
CTTTTCTACA	0.983

Sequence	switch fluorescence ratio
GTAGCGCTAA	0.962
TTAGCCATAG	1.07
CGGGAGAAGC	0.984
TCAGGCCTGT	1.01
ACGACTATCA	1.09
TATCCCTTTG	1.01
AAGCTTTTAC	2.27
CTGTTTCCAG	1
TCTCATATTA	0.987
GTACATATTT	1.03
AGGGCTGCGA	0.99
TGTAAGTGAG	0.962
TGGTGCATCT	1
CTAGTTTAAT	0.993
AGATCGGAAT	1.01
ACGTAATAGG	1.24
GGTTAGCGCC	0.975
GATTCATGAG	0.981
GTGCCACTGG	1
CGGGACGCTA	1.12
AGGAGTTGCG	1.01
CCCCTAGAAC	1.15
TGCTAAGGGA	1.05
AGGGGGCTAG	1.01
TTAAAACGG	0.93
GGACCAGG	0.978

Sequence	switch fluorescence ratio
TGATGACTTA	1.02
ATAACAACTT	0.995
CAGTCGTTAG	1.01
CAATACTAGA	1.02
ATTGCTGGAA	1.02
TTGTGGTATC	1.03
ACATGACCCC	1.15
TAGCTCGCGG	0.974
ATCTATCGTA	0.953
CAAGTTACGG	1.06
GACCACGCAT	2.19
GGCGATAATC	1.19
CAATACCTAA	1.03
ATATGCTAGA	0.989
TTTAACTTA	1.03
CGGGAGTAAG	1.03
ACGGCTAGG	1.02
CCTTATAACG	1.01
TCGAACCTTT	1
GTCACACACC	1.3
TAAAGTAAAA	0.919
AAAGGCGAAC	1.04
GAGCGATCTA	0.987
TGGCCGGTCG	0.975
ATATAATGAG	1.04
TAGGCGCTTG	0.979

Sequence	switch fluorescence ratio
AGGGAAAACT	1.06
CGGACACTAT	1.06
TGGGCGGCCA	0.951
GCCGTCTGGT	0.992
CCAGTCGTAA	1.33
GGTGAATGCT	0.953
GTGCTAGCC	1.02
TCTCATGTGG	1.02
CCCATGCGTC	1.01
AGGCGGGATC	1.01
GTTACCAGGC	1.02
TCCCACAACT	1.11
GACCTTAGT	1
ATGTGAACC	1.02
AGGGTCTCTC	0.984
TAGGCAGAGG	1.02
TGGACGGTT	1.07
GAGGAGCTTT	0.958
AAGCCCGGTT	1.04
TCACACAAG	1.02
AGTAGAAAAA	0.988
TTGTGCTATG	0.951
ATGGAGAGGT	0.975
GATTAACTAA	1
AGAGTGCAAG	1
AAGAATTGC	0.999

Sequence	switch fluorescence ratio
AAAACCCTTG	0.98
AGCCGTAGTA	0.992
GCTGCCTCAC	1.24
ACGGGGGCAT	1.05
CGTAGACCCG	1.03
TTGTAAGACG	0.93
AAAAAACAG	1.02
GGATGTTCTG	0.99
GCCGGTATGG	0.963
TGTGTGAACG	0.992
AGTGAATGAA	0.965
GCGTTTAGTT	0.998
CTATACAAGA	1.03
CTCGTAAAGT	1.49
TGCTGTAGTG	0.949
AAGGGTCGTG	0.999
TGAACCGTGC	1.19
GGATTGAAGC	0.958
TTATGTACCA	1.08
TCTGAGCGG	1.34
GATGGCAGGA	1.04
TGCAATTTAA	1.01
CGTAGTCTC	1.34
CTACTAAATT	0.976
GGCGGGGGT	1
TAAGTAGAGC	1.06

Sequence	switch fluorescence ratio
CTCAGTGTGT	1.08
ATAACAAGTT	1
GAAAATTCAC	1.11
GCTGCGCTGA	1.2
GCTAATGAA	0.992
TTCGACCCCA	1.07
GGAATAGTC	1.11
AAAATTCGTG	1.02
CATTGACTTG	1.01
ATTAAAAAG	1.05
CTTTGAAGTA	0.967
TTGTTTGGGC	0.98
TAAAGAGTTG	1.01
GGAATAGAGA	0.986
TCACACGGGA	1.03
GATCCTAACT	1.03
GATGTTTAAA	0.945
GGTGAGAGCA	0.96
TCATATCCGC	1.32
CGTGTTGCAG	1.09
GGCGCAGCTC	1.03
TTTAGCTCAA	0.992
ATTGCACCAG	1.04
CTACTCCCCT	3.03
TAAGGTTGTT	0.998
GCTTCGGATA	1.18

Sequence	switch fluorescence ratio
AGAATGTTTG	0.959
GTGCTCATGA	0.989
GATCGTGGTC	0.989
TCTGAGCG	0.992
TACCGAGCTA	1.48
ATCTATTGGC	1.03
GATCTTCACT	0.985
GAGTTTGAGC	0.966
CGCGTGCTGA	1.03
GACCTCTTGC	1.01
TTCCTGGCCG	0.835
TATATCACAC	1.08
GGTGTAGTA	0.983
AGGGATCTCG	1.01
CAACGTTTGA	0.991
AATACGCCGT	1.04
TACACTCAAT	1.04
TGTGGGCGAC	0.991
GGGACTCGGC	1.03
